The supplement of paper PMC11125491
± gives the standard deviation of the averaged measurements. Growth of baker's yeast expressing single-residue variants of Pneumocystis jirovecii dihydrofolate reductase in 8.8 or 44 µM methotrexate (about 75% and 90% inhibition of the wild type). Selection coefficient per generation; 0 = like wild type, above 0 = less sensitive, below 0 = more sensitive or loss of function. No active / inactive call per row; the paper calls resistant above 0.220 (8.8 µM) or 0.243 (44 µM) together with a significance test. At 44 µM about 15% of codons end with one read or none, so the lowest values are floors (replicate rank correlation 0.74; 0.94 at 8.8 µM).

B1: UniProt A0EPZ9; numbered along this chain (parent)
chain: MDWQKSLTLIVALTLSRGIGLKNDLPWKLKSDMMFFSRVTSGLLVTRSTGQMNVVLMGRKTWESLPAHSRPLKNRINVVISRQEVLDLGGGAYHARSLDDALALLSQIYDSTSKIQLNRVFVIGGGELCKAAMEHSRLNRIIATVIHNEVDCDVFFPIDFRSSQSCLPWRKQDHSVLEAWVGSKVPQGKINENGFIYEFEMWIRDI

Variants of: B1
Test: selection coefficient against synonymous wild-type codons (log2 per generation); higher = faster growth than wild type
Conditions: with Saccharomyces cerevisiae carrying the variant on a plasmid
Experimental: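 Pooled growth of yeast carrying single-residue variants of P. jirovecii dihydrofolate reductase (own DFR1 gene intact), two passages at 30 °C, three cultures, sequenced before and after. Codons with under 15 starting reads are left out; codons of one change are averaged.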

Variant: MDWQKSLTLIVALTLSRGIGLKNDLPWKLKSDMMFFSRVTSGLLVTRSTGQMNVVLMGRKTWESLPAHSRPLKNRINVVISRQEVLDLGGGAYHARSLDDALALLSQYYDSTSKIQLNRVFVIGGGELCKAAMEHSRLNRIIATVIHNEVDCDVFFPIDFRSSQSCLPWRKQDHSVLEAWVGSKVPQGKINENGFIYEFEMWIRDI [I108Y]
- selection coefficient against synonymous wild-type codons (log2) (methotrexate 8.8 µM): -0.299 ± 0.12
- selection coefficient against synonymous wild-type codons (log2) (methotrexate 44 µM): -0.099 ± 0.052

Variant: MDWQKSLTLIVALTLSRGIGLKNDLPWKLKSDMMFFSRVTSGLLVTRSTGQMNVVLMGRKTWESLPAHSRPLKNRINVVISRQEVLDLGGGAYHARSLDDALALLSQIADSTSKIQLNRVFVIGGGELCKAAMEHSRLNRIIATVIHNEVDCDVFFPIDFRSSQSCLPWRKQDHSVLEAWVGSKVPQGKINENGFIYEFEMWIRDI [Y109A]
- selection coefficient against synonymous wild-type codons (log2) (methotrexate 8.8 µM): 0.135 ± 0.022
- selection coefficient against synonymous wild-type codons (log2) (methotrexate 44 µM): 0.146 ± 0.097

Variant: MDWQKSLTLIVALTLSRGIGLKNDLPWKLKSDMMFFSRVTSGLLVTRSTGQMNVVLMGRKTWESLPAHSRPLKNRINVVISRQEVLDLGGGAYHARSLDDALALLSQICDSTSKIQLNRVFVIGGGELCKAAMEHSRLNRIIATVIHNEVDCDVFFPIDFRSSQSCLPWRKQDHSVLEAWVGSKVPQGKINENGFIYEFEMWIRDI [Y109C]
- selection coefficient against synonymous wild-type codons (log2) (methotrexate 8.8 µM): 0.11 ± 0.029
- selection coefficient against synonymous wild-type codons (log2) (methotrexate 44 µM): 0.0862 ± 0.035

Variant: MDWQKSLTLIVALTLSRGIGLKNDLPWKLKSDMMFFSRVTSGLLVTRSTGQMNVVLMGRKTWESLPAHSRPLKNRINVVISRQEVLDLGGGAYHARSLDDALALLSQIDDSTSKIQLNRVFVIGGGELCKAAMEHSRLNRIIATVIHNEVDCDVFFPIDFRSSQSCLPWRKQDHSVLEAWVGSKVPQGKINENGFIYEFEMWIRDI [Y109D]
- selection coefficient against synonymous wild-type codons (log2) (methotrexate 8.8 µM): -0.0143 ± 0.024
- selection coefficient against synonymous wild-type codons (log2) (methotrexate 44 µM): -0.00771 ± 0.14

Variant: MDWQKSLTLIVALTLSRGIGLKNDLPWKLKSDMMFFSRVTSGLLVTRSTGQMNVVLMGRKTWESLPAHSRPLKNRINVVISRQEVLDLGGGAYHARSLDDALALLSQIEDSTSKIQLNRVFVIGGGELCKAAMEHSRLNRIIATVIHNEVDCDVFFPIDFRSSQSCLPWRKQDHSVLEAWVGSKVPQGKINENGFIYEFEMWIRDI [Y109E]
- selection coefficient against synonymous wild-type codons (log2) (methotrexate 8.8 µM): 0.0811 ± 0.022
- selection coefficient against synonymous wild-type codons (log2) (methotrexate 44 µM): 0.0603 ± 0.1

Variant: MDWQKSLTLIVALTLSRGIGLKNDLPWKLKSDMMFFSRVTSGLLVTRSTGQMNVVLMGRKTWESLPAHSRPLKNRINVVISRQEVLDLGGGAYHARSLDDALALLSQIFDSTSKIQLNRVFVIGGGELCKAAMEHSRLNRIIATVIHNEVDCDVFFPIDFRSSQSCLPWRKQDHSVLEAWVGSKVPQGKINENGFIYEFEMWIRDI [Y109F]
- selection coefficient against synonymous wild-type codons (log2) (methotrexate 8.8 µM): 0.181 ± 0.098
- selection coefficient against synonymous wild-type codons (log2) (methotrexate 44 µM): 0.256 ± 0.0068

Variant: MDWQKSLTLIVALTLSRGIGLKNDLPWKLKSDMMFFSRVTSGLLVTRSTGQMNVVLMGRKTWESLPAHSRPLKNRINVVISRQEVLDLGGGAYHARSLDDALALLSQIGDSTSKIQLNRVFVIGGGELCKAAMEHSRLNRIIATVIHNEVDCDVFFPIDFRSSQSCLPWRKQDHSVLEAWVGSKVPQGKINENGFIYEFEMWIRDI [Y109G]
- selection coefficient against synonymous wild-type codons (log2) (methotrexate 8.8 µM): -0.0236 ± 0.016
- selection coefficient against synonymous wild-type codons (log2) (methotrexate 44 µM): -0.068 ± 0.13

Variant: MDWQKSLTLIVALTLSRGIGLKNDLPWKLKSDMMFFSRVTSGLLVTRSTGQMNVVLMGRKTWESLPAHSRPLKNRINVVISRQEVLDLGGGAYHARSLDDALALLSQIHDSTSKIQLNRVFVIGGGELCKAAMEHSRLNRIIATVIHNEVDCDVFFPIDFRSSQSCLPWRKQDHSVLEAWVGSKVPQGKINENGFIYEFEMWIRDI [Y109H]
- selection coefficient against synonymous wild-type codons (log2) (methotrexate 8.8 µM): 0.101 ± 0.012
- selection coefficient against synonymous wild-type codons (log2) (methotrexate 44 µM): 0.0985 ± 0.17
